Experimental findings from patent US20170253656A1 (SUTRO BIOPHARMA, published 2017) are described below.

The assay deals with T1, hu-CD74 antigen (R&D SYSTEMS catalog #3590-CD-050) (human, UniProt P04233-2 73-232, limits assumed).
T1 construct: Bought antigen; also called rhCD74; human CD74
T1 sequence (looked up): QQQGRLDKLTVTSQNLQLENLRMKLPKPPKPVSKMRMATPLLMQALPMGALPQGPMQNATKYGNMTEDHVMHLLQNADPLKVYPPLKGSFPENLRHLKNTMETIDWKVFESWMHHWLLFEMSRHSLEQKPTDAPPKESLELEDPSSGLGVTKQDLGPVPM
The assay is described as follows: SPR (Biacore), scFv-Fc captured on anti-human Fc, human CD74 analyte, 1:1 model. Here is the method:
Purified ScFv-Fc is captured on an anti-human Fc surface at a concentration of 10 μg/mL, and different concentrations of antigen (20 nM, 10 nM, 5 nM and 0 nM of human CD74, R&D Systems) are passed over the chip surface to which the ScFv-Fc is bound. Data is fit to a 1:1 binding model using BIACORE evaluation software.

B1: SP-007377, 1251-B08-gm_1337_A09-gm ScFvFc (Fc fusion)
chain: QVQLVESGGGVVQPGRSLRLSCAASGFNFSDYGMHWVRQAPGKGLEWVAVIWYDGSISYYADSVKGRFTISRDNSKNTLYLQMNSLRAEDTAVYYCARGGTVEHGAVYGTDVWGQGTTVTVSSGGGGSGGGGSGGGGSDIQMTQSPSSVSASVGDRVTITCRASQGIGSWLAWYQQKPGKAPKLLIYAADRLQSGVPSRFSGSGSGTDFTLTISSLQPEDFATYYCQQYHTYPLTFGGGTKVEIKAAGSDQ[human IgG1 Fc with changes omitted]GSGDYKDDDDKGSGHHHHHH
notes: scFv-Fc; also called Anti-CD74 scFv-Fc (1251-B08-gm_1337-A09-gm); 1251-B08-g_1337-A09-g scFv-Fc
B1: the Kd (commonly the concentration at which binding is half-saturated) stood at 0.354 nM; the koff (in general, a measure of how fast the partners let go of each other) came to 0.00012 s⁻¹; the kon (as a rule, a measure of how fast the partners come together) stood at 338000 M⁻¹ s⁻¹.
